Laboratory results reported in ChEMBL document CHEMBL4888484, “Replenishing the malaria drug discovery pipeline: Screening and hit evaluation of the MMV Hit Generation Library 1 (HGL1) against asexual blood stage Plasmodium falciparum ,using a nano luciferase reporter read-out” (2022).
The campaign covered roughly 150,000 compounds. About 540 (0.36%) showed an effect of 50% or more. The list shows a part of the results.

test system: Plasmodium falciparum; experiment: Primary screen in NF54 nanoGlo assay, in single point, at 2uM, 72h; a lower Z score goes with more inhibition; assay type: functional, Erythrocyte; conditions: timepoint 72 hour

Compound	% Inhibition [%]	Z score
O=C(c1cnccn1)N1CCC(Cc2nc(C3CCOCC3)no2)CC1	-8	1.03
O=C(Nc1cccc(Cl)c1)c1c(-c2ccc(C(F)(F)F)cc2)noc1N1CCCCC1	2	-0.39
CS(=O)(=O)C[C@H]1CCCN1C(=O)c1cc2c(o1)CCCC2	-19	2.16
CCCC(CCC)C(=O)Nc1ccc(Br)cc1F	-3	0.63
O=S(=O)(c1ccc(Br)cc1)n1ccc(C2CC2)n1	34	-0.74
COc1cc(C(=O)N2CC(NC(=O)C3CCC3)C2)ccc1F	-3	0.54
COC1(CO)CCN(c2nnnn2CCc2cccc(C)c2)CC1	-11	1.5
O=C(Cn1ccc2ccccc21)N1CC[C@H](Oc2cnccn2)C1	0	0.03
CN(Cc1nnc2c(=O)n(C)ccn12)c1nc(C(F)(F)F)cs1	3	-0.57
CCc1ccc([C@H]2C[C@@H](c3ccc(Br)cc3)Nc3nnnn32)cc1	3	-0.35
O=C(c1cnccn1)N(Cc1ccc(Cl)cc1)c1ccccc1Cl	-8	1.11
CC[C@H](NCc1nccs1)c1cccc(S(N)(=O)=O)c1	-5	0.62
C=CCC[C@H](O)CN(Cc1c(-c2ccccc2)nn(C)c1Oc1ccc(Cl)cc1)C1CC1	8	-0.98
COc1ccccc1N1CCN(C(=O)c2cc3n(n2)CCN(Cc2cccc(F)c2)C3=O)CC1	4	-0.59
Cc1cccc2c(NCc3ccccc3F)nc(CNC(=O)Cc3cccnc3)nc12	-7	0.87
O=C1c2ccccc2C(=O)N1Cc1nc2cccnc2n1Cc1ccc(F)cc1	6	-1.17
Cc1ccnc2ccc(C(=O)N3CC[C@]4(CNC(=O)C4)C3)cc12	-1	0.12
Cc1ccc(CN2CCN(Cc3ccc(C)o3)[C@@H](CCO)C2)o1	-17	1.49
O=C(c1cc(Cl)ccc1F)N1CC[C@@H]2OCc3cnnn3[C@H]2C1	4	-0.58
O=C(O)c1c(NC(=O)C(c2ccccc2)c2ccccc2)sc2c1CCCC2	-15	2.36
O=C(Cn1ccn2nc(-c3ccc(F)cc3)c(CO)c2c1=O)NC1CCCCC1	0	0.02
CCN1c2cc(C(=O)Nc3cc(F)cc(F)c3)ccc2C(=O)N2CCCCC[C@H]21	-7	1.2
Cc1ncnc2c1CCC(=O)N2CCCN1CCOCC1	-8	1.11
